Where two headings read alike, the source gives them in different places.
Test system: PPO resistant common waterhemp (Amaranthus tamariscinus, AMATA) that contains the ΔG210 mutation
Conditions: for activity in words on PPO resistant common waterhemp that contains the ΔG210 mutation: summary of Example 4 table; for Weed control (%) of PPO resistant AMATA that contains the ΔG210 mutation: field, 14 days after treatment

C#CCN1C(=O)COc2cc(F)c(N3C(=O)C4=C(CCCC4)C3=O)cc21 [Flumioxazin, flumioxazin]
activity in words on PPO resistant common waterhemp that contains the ΔG210 mutation: only very limited herbicidal effect | Weed control (%) of PPO resistant AMATA that contains the ΔG210 mutation (use rate 71.5 g/ha): 20% | Weed control (%) of PPO resistant AMATA that contains the ΔG210 mutation (use rate 143 g/ha): 32%

C#CCN1C(=O)C(F)(F)Oc2cc(F)c(-n3c(=O)n(C)c(=S)n(C)c3=O)cc21 [I.a.35]
activity in words on PPO resistant common waterhemp that contains the ΔG210 mutation: very good activity | Weed control (%) of PPO resistant AMATA that contains the ΔG210 mutation (use rate 50 g/ha): 79% | Weed control (%) of PPO resistant AMATA that contains the ΔG210 mutation (use rate 100 g/ha): 85%

CS(=O)(=O)NC(=O)c1cc(Oc2ccc(C(F)(F)F)cc2Cl)ccc1[N+](=O)[O-] [Fomesafen, fomesafen]
activity in words on PPO resistant common waterhemp that contains the ΔG210 mutation: only very limited herbicidal effect | Weed control (%) of PPO resistant AMATA that contains the ΔG210 mutation (use rate 420 g/ha): 5% | Weed control (%) of PPO resistant AMATA that contains the ΔG210 mutation (use rate 840 g/ha): 8%

Cc1nn(-c2cc(NS(C)(=O)=O)c(Cl)cc2Cl)c(=O)n1C(F)F [Sulfentrazone, sulfentrazone]
activity in words on PPO resistant common waterhemp that contains the ΔG210 mutation: only very limited herbicidal effect | Weed control (%) of PPO resistant AMATA that contains the ΔG210 mutation (use rate 280 g/ha): 18% | Weed control (%) of PPO resistant AMATA that contains the ΔG210 mutation (use rate 560 g/ha): 23%

— patent US10897903B2, “Method for controlling PPO resistant weeds” (BASF SE, priority 2016, dated 2021)
